The supplement of paper PMC8728848
The other results are listed elsewhere or left out.

How the values were obtained:
Experiment in all cases: glycan array binding signal (z-score within array); higher = stronger binding
Conditions in all cases: glycan notation: IUPAC condensed, linker removed
Neu5Ac(a2-8)Neu5Ac = molecular target: Neu5Ac(a2-8)Neu5Ac
Outline: (§1)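 From the Consortium for Functional Glycomics database, 3228 arrays were curated, keeping only those whose protein sequence was available. Binding is given as a within-array Z-score averaged across arrays sharing a protein sequence and across linkers. Negative Z-scores can be read as non-binding.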

[1] = molecular target: Neu5Ac(a2-8)Neu5Ac(a2-3)Gal(b1-3)GalNAc(b1-4)[Neu5Ac(a2-3)]Gal(b1-4)Glc
Outline: as §1

[2] = molecular target: Neu5Ac(a2-8)Neu5Ac(a2-3)Gal(b1-3)GalNAc(b1-4)[Neu5Ac(a2-8)Neu5Ac(a2-3)]Gal(b1-4)Glc
Outline: as §1

[3] = molecular target: Neu5Ac(a2-8)Neu5Ac(a2-3)Gal(b1-4)Glc
Outline: as §1

[4] = molecular target: Neu5Ac(a2-8)Neu5Ac(a2-3)Gal(b1-4)GlcNAc
Outline: as §1

[5] = molecular target: Neu5Ac(a2-8)Neu5Ac(a2-3)[Gal(b1-3)GalNAc(b1-4)]Gal(b1-4)Glc
Outline: as §1

[6] = molecular target: Neu5Ac(a2-8)Neu5Ac(a2-3)[GalNAc(b1-4)]Gal(b1-4)Glc
Outline: as §1

[7] = molecular target: Neu5Ac(a2-8)Neu5Ac(a2-8)Neu5Ac
Outline: as §1

[8] = molecular target: Neu5Ac(a2-8)Neu5Ac(a2-8)Neu5Ac(a2-3)Gal(b1-4)Glc
Outline: as §1

[9] = molecular target: Neu5Ac(a2-8)Neu5Ac(a2-8)Neu5Ac(a2-3)[Gal(b1-3)GalNAc(b1-4)]Gal(b1-4)Glc
Outline: as §1

[10] = molecular target: Neu5Ac(a2-8)Neu5Ac(a2-8)Neu5Ac(a2-3)[GalNAc(b1-4)]Gal(b1-4)Glc
Outline: as §1

[11] = molecular target: Neu5Ac(a2-8)Neu5Ac(a2-8)Neu5Ac(a2-8)Neu5Ac(a2-3)[GalNAc(b1-4)]Gal(b1-4)Glc
Outline: as §1

[12] = molecular target: Neu5Ac(a2-8)Neu5Gc(a2-3)Gal(b1-4)GlcNAc
Outline: as §1

[13] = molecular target: Neu5Ac(b2-6)Gal(b1-4)GlcNAc
Outline: as §1

Neu5Ac(b2-6)GalNAc = molecular target: Neu5Ac(b2-6)GalNAc
Outline: as §1

[14] = molecular target: Neu5Ac9Ac(a2-3)Gal(b1-3)GlcNAc
Outline: as §1

[15] = molecular target: Neu5Ac9Ac(a2-3)Gal(b1-4)GlcNAc
Outline: as §1

[16] = molecular target: Neu5Ac9Ac(a2-6)Gal(b1-4)GlcNAc
Outline: as §1

[17] = molecular target: Neu5Gc(a2-3)Gal(b1-3)GlcNAc
Outline: as §1

[18] = molecular target: Neu5Gc(a2-3)Gal(b1-3)[Fuc(a1-4)]GlcNAc
Outline: as §1

Neu5Gc(a2-3)Gal(b1-4)Glc = molecular target: Neu5Gc(a2-3)Gal(b1-4)Glc
Outline: as §1

[19] = molecular target: Neu5Gc(a2-3)Gal(b1-4)GlcNAc
Outline: as §1

[20] = molecular target: Neu5Gc(a2-3)Gal(b1-4)GlcNAc(b1-3)Gal(b1-4)GlcNAc(b1-2)Man(a1-3)[Neu5Gc(a2-3)Gal(b1-4)GlcNAc(b1-3)Gal(b1-4)GlcNAc(b1-2)Man(a1-6)]Man(b1-4)GlcNAc(b1-4)GlcNAc
Outline: as §1

[21] = molecular target: Neu5Gc(a2-3)Gal(b1-4)[Fuc(a1-3)]GlcNAc
Outline: as §1

[22] = molecular target: Neu5Gc(a2-6)Gal(b1-4)GlcNAc
Outline: as §1

Neu5Gc(a2-6)GalNAc = molecular target: Neu5Gc(a2-6)GalNAc
Outline: as §1

[23] = molecular target: Neu5Gc(a2-8)Neu5Ac(a2-3)Gal(b1-4)GlcNAc
Outline: as §1

[24] = molecular target: Neu5Gc(a2-8)Neu5Gc(a2-3)Gal(b1-4)GlcNAc
Outline: as §1

[25] = molecular target: Neu5Gc(a2-8)Neu5Gc(a2-3)Gal(b1-4)GlcNAc(b1-3)Gal(b1-4)GlcNAc
Outline: as §1

[26] = molecular target: Neu5Gc(a2-8)Neu5Gc(a2-6)Gal(b1-4)GlcNAc
Outline: as §1

[27] = molecular target: Neu5Gc(b2-6)Gal(b1-4)GlcNAc
Outline: as §1

B1: DC-ASGPR S+GEE (Homo sapiens) (protein)
chain: MTRTYENFQYLENKVKVQGFKNGPLPLQSLLQRLRSGPCHLLLSLGLGLLLLVIICVVGFQNSKFQRDLVTLRTDFSNFTSNTVAEIQALTSQGSSLEETIASLKAEVEGFKQERQAVHSEMLLRVQQLVQDLKKLTCQVATINNNGEEASTEGTCCPVNWVEHQDSCYWFSHSGMSWAEAEKYCQLKNAHLVVINSREEQNFVQKYLGSAYTWMGLSDPEGAWKWVDGTDYATGFQNWKPGQPDDWQGHGLGGGEDCAHFHPDGRWNDDVCQRPYHWVCEAGLGQTSQESH
Neu5Ac(a2-8)Neu5Ac
  glycan array binding signal (z-score): -0.377
[1]
  glycan array binding signal (z-score): -0.32
[2]
  glycan array binding signal (z-score): -0.342
[3]
  glycan array binding signal (z-score): -0.334
[4]
  glycan array binding signal (z-score): -0.278
[5]
  glycan array binding signal (z-score): 0.848
[6]
  glycan array binding signal (z-score): 2
[7]
  glycan array binding signal (z-score): -0.301
[8]
  glycan array binding signal (z-score): -0.432
[9]
  glycan array binding signal (z-score): -0.429
[10]
  glycan array binding signal (z-score): 1.63
[11]
  glycan array binding signal (z-score): 1.61
[12]
  glycan array binding signal (z-score): -0.292
[13]
  glycan array binding signal (z-score): -0.3
Neu5Ac(b2-6)GalNAc
  glycan array binding signal (z-score): 0.361
[14]
  glycan array binding signal (z-score): -0.316
[15]
  glycan array binding signal (z-score): -0.346
[16]
  glycan array binding signal (z-score): -0.332
[17]
  glycan array binding signal (z-score): -0.217
[18]
  glycan array binding signal (z-score): -0.33
Neu5Gc(a2-3)Gal(b1-4)Glc
  glycan array binding signal (z-score): -0.351
[19]
  glycan array binding signal (z-score): -0.25
[20]
  glycan array binding signal (z-score): -0.254
[21]
  glycan array binding signal (z-score): 0.499
[22]
  glycan array binding signal (z-score): -0.355
Neu5Gc(a2-6)GalNAc
  glycan array binding signal (z-score): 2.28
[23]
  glycan array binding signal (z-score): -0.281
[24]
  glycan array binding signal (z-score): -0.306
[25]
  glycan array binding signal (z-score): -0.242
[26]
  glycan array binding signal (z-score): -0.404
[27]
  glycan array binding signal (z-score): -0.355
